Paper PMC4336329 (PLoS ONE, 2015)
Screen size: about 310,000 compounds; about 2,200 (0.71%) showed an effect of 50% or more. The effect is printed as a negative number. Some of the results follow.

These compounds were tested against human ether-à-go-go-related gene (hERG) potassium channel (human, UniProt Q12809) (assay: primary screen, population patch clamp on CHO cells stably expressing hERG).
human ether-à-go-go-related gene (hERG) potassium channel, sequence (Q12809 whole entry, looked up): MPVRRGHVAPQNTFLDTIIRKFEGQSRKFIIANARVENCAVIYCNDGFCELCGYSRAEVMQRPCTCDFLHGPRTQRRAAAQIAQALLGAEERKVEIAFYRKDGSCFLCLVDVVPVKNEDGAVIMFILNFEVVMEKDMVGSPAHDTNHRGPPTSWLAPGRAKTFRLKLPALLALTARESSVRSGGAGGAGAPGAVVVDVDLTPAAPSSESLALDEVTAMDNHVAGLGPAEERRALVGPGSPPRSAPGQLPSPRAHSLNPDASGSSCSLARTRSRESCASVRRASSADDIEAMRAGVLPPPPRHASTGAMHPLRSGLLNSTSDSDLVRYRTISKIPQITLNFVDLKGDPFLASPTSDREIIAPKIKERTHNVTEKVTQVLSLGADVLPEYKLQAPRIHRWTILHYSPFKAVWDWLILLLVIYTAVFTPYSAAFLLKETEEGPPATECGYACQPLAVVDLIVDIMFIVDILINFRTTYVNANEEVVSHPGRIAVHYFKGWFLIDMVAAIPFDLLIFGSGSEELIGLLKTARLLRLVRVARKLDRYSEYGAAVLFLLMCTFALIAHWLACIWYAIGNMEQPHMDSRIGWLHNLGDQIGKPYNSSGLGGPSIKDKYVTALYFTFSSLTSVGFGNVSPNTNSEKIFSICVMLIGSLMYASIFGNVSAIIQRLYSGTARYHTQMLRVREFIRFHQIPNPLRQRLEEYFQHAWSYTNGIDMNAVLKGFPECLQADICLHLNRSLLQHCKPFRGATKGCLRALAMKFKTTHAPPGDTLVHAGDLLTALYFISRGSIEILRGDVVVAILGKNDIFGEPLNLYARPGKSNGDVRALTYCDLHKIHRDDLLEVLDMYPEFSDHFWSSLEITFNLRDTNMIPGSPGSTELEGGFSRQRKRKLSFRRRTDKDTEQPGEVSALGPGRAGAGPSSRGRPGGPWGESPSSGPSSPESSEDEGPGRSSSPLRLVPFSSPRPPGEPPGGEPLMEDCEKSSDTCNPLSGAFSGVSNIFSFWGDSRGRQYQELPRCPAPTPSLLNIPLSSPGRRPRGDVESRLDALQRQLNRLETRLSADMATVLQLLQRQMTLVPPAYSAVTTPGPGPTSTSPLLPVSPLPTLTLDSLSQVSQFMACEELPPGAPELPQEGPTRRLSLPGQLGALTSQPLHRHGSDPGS

Row | Structure (SMILES) | hERG current change (%, negative = inhibition) at 1uM
1 | CCN1CCN(S(=O)(=O)c2ccc(Cl)c(C(=O)Nc3ccccc3N3CCCC3)c2)CC1 | 7.91%
2 | O=C(COc1ccccc1Cl)Nc1nc(-c2cccs2)cs1 | -0.0902%
3 | CCN(CC)CCNC(=S)Nc1ccc(Cl)cc1 | 5.24%
4 | Cc1ccc(-c2nnc(Cc3ccc([N+](=O)[O-])cc3)o2)cc1 | -37.6%
5 | CC(C)OC(=O)CC1C(=O)NCCN1C(=S)NC(=O)c1cccs1 (stereo not shown) | 15%
6 | CCCOc1ccc(Cc2c(O)nc(SC)[nH]c2=O)cc1 | 14%
7 | O=C(NCC1CCCO1)c1cccc(S(=O)(=O)Nc2ccc(F)cc2)c1 (stereo not shown) | 7.95%
8 | O=C(NCC1CCCN(Cc2ccccc2F)C1)c1cccc(C(F)(F)F)c1 (stereo not shown) | -9.44%
9 | N#Cc1ccc(OCC(=O)NNC(=S)NC2CCCCC2)cc1 | 4.01%
10 | CS(=O)(=O)c1ccc(Cl)c(NC(=O)CCCSc2ccccc2)c1 | 3.09%
11 | COc1ccc(Cn2c(N)c(C#N)c3nc4ccccc4nc32)cc1OC | 13%
12 | CCn1c(=O)c(C(=O)NC(C)c2ccccc2)c(O)c2ccccc21 (stereo not shown) | 16.7%
13 | COc1cc(/C=N/Nc2ccc(Cl)nn2)cc(OC)c1O | 16.5%
14 | Cc1ccc(-c2c(C)sc(=NC(=O)c3ccco3)n2C)cc1 | 11.4%
15 | CCN1CCc2c(sc(NC(=O)C3COc4ccccc4O3)c2C(N)=O)C1.Cl (stereo not shown) | 2.54%
16 | O=C(Cc1ccc([N+](=O)[O-])cc1)N/N=C/c1ccccc1F | 14.7%
17 | CC1CCN(S(=O)(=O)c2ccc3[nH]cc(C(=O)NCCN4CCOCC4)c(=O)c3c2)CC1 | 11.5%
18 | COc1ccc(C2CC(=O)c3c(C)nc(N4CCN(Cc5ccccc5)CC4)nc3C2)cc1OC (stereo not shown) | 12.9%
19 | O=C(NC(Cc1ccccc1)C(=O)O)/C(=C/c1cccc([N+](=O)[O-])c1)NC(=O)c1cccc(Br)c1 (stereo not shown) | 19.3%
20 | O=C(NCc1nc2ccccc2[nH]1)c1cccs1 | 12.2%
21 | CCOc1ccc(-n2nc3c(SCCN4CCCC4)nnc(C)c3c2C)cc1 | -21.4%
22 | COc1cc(/C=N/NC(=O)c2cncc(Br)c2)cc([N+](=O)[O-])c1O | 24.5%

Row | Structure (SMILES) | hERG current change (%, negative = inhibition) at 1uM
23 | CCOC(=O)C(Sc1nnc2c3ccccc3n(CC)c2n1)C(=O)OCC | 11%
24 | COc1ccc(C2=NOC(Cn3nc(C(=O)NCc4ccc5c(c4)OCO5)cc3-c3ccccc3)C2)cc1 (stereo not shown) | 9.73%
25 | CSc1ccc(CN(C)CC(=O)N(C)CC(=O)Nc2ccccc2Br)cc1 | -4.81%
26 | Cc1ccc(/C=C/C(=O)Nc2ccc([N+](=O)[O-])cc2)o1 | 6.39%
27 | COC(=O)C1=C(c2ccc(Cl)c(C(F)(F)F)c2)C[C@@H]2CC[C@H]1N2C(=O)NCCO | 10.6%
28 | Cc1ccc(N/N=C(\C#N)C(N)=S)c(C)c1 | 13.5%
29 | c1ccc2c(c1)Cn1c-2nc2ccccc21 | -2.19%
30 | CC(=O)c1ccc(OCCn2cnc3ccccc32)cc1 | -2.47%
31 | O=C(CO/N=C1\CCCc2nonc21)Nc1ccc(Br)cc1 | 2.7%
32 | CCOc1cccc(C2C(C(=O)c3ccc(C)o3)=C(O)C(=O)N2CCCn2ccnc2)c1 (stereo not shown) | -8.98%
33 | Cc1cc(OCC(=O)NC(C)C)cc(C)c1Cl | 10.7%
34 | O=C(Nc1ccccc1N1CCOCC1)c1ccc2c(c1)OCCO2 | 10%
35 | Cc1ccccc1-n1nnnc1SCC(N)=O | 20.9%
36 | COc1cc(C(=O)NNC(=O)NC2CCCCC2)cc(OC)c1OC | 2.65%
37 | CN(C(=O)c1cc2c(=O)n3ccccc3nc2n1C)C1CCCCC1 | -9.03%
38 | CCOc1ccc(Nc2nc(CC(=O)OC)cc(=O)[nH]2)cc1 | -0.749%
39 | NNC(=O)C(Cc1cnc[nH]1)NC(=O)OCc1ccccc1 (stereo not shown) | 11.7%
40 | COCCCNC(=O)C1=CCN(S(=O)(=O)c2ccc(C)cc2)CC1 | -4.01%
41 | CCOc1cc2[nH]c(=O)n(CCCN3CCN(c4ccc(OC)cc4)CC3)c(=O)c2cc1OCC | -19.2%
42 | COc1cc2c(cc1OC)CN(C(=O)/C=C/c1ccc([N+](=O)[O-])cc1)CC2 | -18.4%
43 | CS(=O)(=O)NCCNc1ccc(C(F)(F)F)cc1[N+](=O)[O-] | 6.16%
44 | COC(=O)C1=C(C)N(c2cc(C)cc(C)c2)/C(=C/c2ccc(O)cc2)C1=O | 7.71%

Row | Structure (SMILES) | hERG current change (%, negative = inhibition) at 1uM
45 | O=c1[nH]c(-c2ccccc2)nc2ccccc12 | 15.7%
46 | CC(=O)N(/C=C1\SC(=S)N(c2ccccc2)C1=O)c1ccccc1 | 1.77%
47 | COC1CCCN(C(=O)c2ccc(OC3CCN(S(=O)(=O)N(C)C)CC3)cc2)C1 (stereo not shown) | 12.1%
48 | CCSC1=C(C#N)C(c2ccccc2OC)CC(=O)N1 (stereo not shown) | 6.79%
49 | CCN(CC)CCNC(=O)CCCCn1c(=S)[nH]c2c([nH]c3ccc(OC)cc32)c1=O | 20.4%
50 | Cc1cc(C)cc(N(CC(=O)NC(C)C)C(=O)CCC(=O)Nc2ccccn2)c1 | 7.58%
51 | COC(=O)c1ccccc1NC(=O)c1cnn2cccnc12 | 4.41%
52 | C/C=C/C(=O)Nc1cccc(C(F)(F)F)c1 | 10.8%
53 | COC(=O)c1cccnc1N1CCN(c2ccccc2F)CC1 | -10.4%
54 | CCc1nc2ccc(C(=O)NCCCN3CCN(c4ccc(F)cc4)CC3)cc2nc1CC | -12.4%
55 | Cc1cc(C)c(C2=NOC3C4CCC(C4)C23)c(C)c1 (stereo not shown) | 11.2%
56 | Cc1ccccc1C(=O)NNC(=O)C(=O)N1CCCCC1 | 14.4%
57 | CCNCc1cc(OCC)c(OCC(=O)NCCc2ccccc2)cc1Cl.Cl | 3.75%
58 | Cc1cc(NC(=O)CSc2n[nH]c(=O)[nH]c2=O)ccc1Br | 18.9%
59 | Cc1ccccc1-c1nc(CS(=O)(=O)CC(=O)NCCN2CCCC2)c(C)o1 | 7.89%
60 | O=C(NNC(=O)C1CCN(C(=O)Nc2ccccc2)CC1)c1ccc([N+](=O)[O-])cc1 | 7.93%
61 | Br.O=C(N=c1nc2ccccn2s1)c1ccccc1 | 19.4%
62 | COc1cc(CN2CCC(n3nccc3NC(=O)c3ccccc3OC)CC2)ccc1F | -77.6%
63 | O=C(c1ccccc1)N1CCC(CC2CC(c3ccc(Cl)cc3)=NO2)(C(=O)NCC2CCCCC2)CC1 (stereo not shown) | -12.1%
64 | CC1CCN(c2ccc3c(c2)S(=O)(=O)c2cccc(C(=O)NCc4ccc(F)cc4)c2C3=O)CC1 | 15.9%
65 | COC(=O)CCC(=O)OC1(C)C(=O)C2=CN(Cc3ccco3)C(c3ccc(OC)cc3)=CC2=C(Br)C1=O (stereo not shown) | 5.7%
66 | Cc1cccc(NC(=S)N(Cc2ccc(Cl)cc2)Cc2ccc(C(=O)O)cc2)c1 | 18.9%

Row | Structure (SMILES) | hERG current change (%, negative = inhibition) at 1uM
67 | COc1ccc2cc(C(C)C(=O)NC3CCC(O)CC3)ccc2c1 (stereo not shown) | 13.4%
68 | Cc1ccsc1C(=O)C1CCCN(Cc2cccn2-c2ccccn2)C1 (stereo not shown) | -81.7%
69 | Oc1ccccc1C=NC1=NN(c2cccc(C(F)(F)F)c2)CC1 | 3.03%
70 | CNC(=O)COC(=O)c1ccc(Cl)c(S(N)(=O)=O)c1 | -18.6%
71 | O=C(CCC(=O)N1CCCc2ccccc21)N1CCN(S(=O)(=O)c2ccccc2)CC1 | 8.14%
72 | O=C(NCCc1nc2ccccc2[nH]1)c1ccc([N+](=O)[O-])cc1 | -5.66%
73 | COC(=O)N(C)c1nc2ccccc2s1 | 1.56%
74 | CCOc1ccc(NC(=O)CN2CCN(c3ccc(F)cc3)CC2)cc1 | 11.4%
75 | COc1cccc(-n2c(C)nc3ccccc3c2=O)c1 | 8.45%
76 | COc1cccc(C(=O)Oc2cccc(N3C(=O)C4C5CC(C(Br)C5Br)C4C3=O)c2)c1 (stereo not shown) | -0.71%
77 | CC(=O)Oc1ccc(-c2csc(Nc3cccc(C)n3)n2)cc1 | 16.3%
78 | O=C(COc1ccccc1Cl)Nc1ccc2c(c1)OCO2 | -3.33%
79 | CCC(CO)n1c(=S)[nH]c2cc(OC)c(OC)cc2c1=O (stereo not shown) | 15.1%
80 | O=C(COc1ccccc1[N+](=O)[O-])N/N=C/c1cccc(OC(=O)c2ccc3c(c2)OCO3)c1 | -2.13%
81 | O=C(NCCOCCOCCNC(=O)c1ccccc1)c1ccccc1 | 14.2%
82 | CN(C)CCCNc1ccc(-c2cc(Nc3cccc(Cl)c3)ncn2)cn1 | -26.6%
83 | CCOCC(=O)Nc1ccc(S(=O)(=O)Nc2ncccn2)cc1 | 14.5%
84 | CCN(CC(=O)Nc1cccc(OC)c1)CC(=O)Nc1ccc(Br)c(C)c1 | 7.46%
85 | Cc1ccc2occ(C(c3nnnn3Cc3ccccc3)N3CCOCC3)c(=O)c2c1 (stereo not shown) | 8.56%
86 | Br.Cc1ccnc(Nc2nc(-c3sc(C)nc3C)cs2)c1 | 10.5%
87 | N#Cc1ccc(-c2csc(NNC(=O)c3ccc(Br)cc3)n2)cc1 | 7.82%
88 | CCN(c1cccc(C)c1)S(=O)(=O)c1ccc(-c2ccc(=O)[nH]n2)o1 | 12.8%
